Test results from PMC13538678.
No constants are given. Whether binding was seen depends on the method and setting. In cells and extracts the contact can be indirect. Some results given as binding are weak or reduced against the parent protein; the word gives no strength. For some assays here: Sequences can lack the tags named with a protein. One block for each molecule: values may come before it.

Amino acid sequences for entries named in this document (tags omitted). Residues count along the entry.
UniProt P24593, residues 21-272: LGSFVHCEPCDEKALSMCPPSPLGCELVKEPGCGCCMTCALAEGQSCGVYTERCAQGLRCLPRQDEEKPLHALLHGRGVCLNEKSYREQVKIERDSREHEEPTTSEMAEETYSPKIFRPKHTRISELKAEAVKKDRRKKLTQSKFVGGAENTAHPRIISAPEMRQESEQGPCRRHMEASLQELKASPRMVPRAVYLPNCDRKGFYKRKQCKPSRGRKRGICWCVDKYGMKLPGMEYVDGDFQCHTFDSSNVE
UniProt Q86U44: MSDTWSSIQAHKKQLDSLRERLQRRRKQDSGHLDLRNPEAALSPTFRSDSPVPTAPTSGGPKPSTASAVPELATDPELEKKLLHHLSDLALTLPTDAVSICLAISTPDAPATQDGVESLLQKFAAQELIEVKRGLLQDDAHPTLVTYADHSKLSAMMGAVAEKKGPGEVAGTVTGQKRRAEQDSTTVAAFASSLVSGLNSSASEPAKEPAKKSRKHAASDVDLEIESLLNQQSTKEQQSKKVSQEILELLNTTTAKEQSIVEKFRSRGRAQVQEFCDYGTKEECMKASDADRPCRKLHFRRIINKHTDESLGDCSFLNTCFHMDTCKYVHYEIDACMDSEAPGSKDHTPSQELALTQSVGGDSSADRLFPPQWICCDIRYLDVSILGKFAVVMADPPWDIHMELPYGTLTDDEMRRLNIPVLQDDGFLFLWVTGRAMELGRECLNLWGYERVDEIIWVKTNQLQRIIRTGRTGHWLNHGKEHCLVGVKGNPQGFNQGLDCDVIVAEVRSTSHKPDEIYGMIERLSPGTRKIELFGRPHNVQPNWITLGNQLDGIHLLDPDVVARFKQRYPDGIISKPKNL

Key:
[1] = molecular target: T1, Flag-ΔMT-A70 (METTL14 with deletion of 186-363, MT-A70 domain) (UniProt Q9HCE5); test: co-IP; 293 T cells co-transfected with HA-IGFBP5 and Flag-METTL14 constructs; lysate treated with RNase A and T1; anti-Flag M2 magnetic beads, 4 h at 4 °C; western blot
T1 sequence: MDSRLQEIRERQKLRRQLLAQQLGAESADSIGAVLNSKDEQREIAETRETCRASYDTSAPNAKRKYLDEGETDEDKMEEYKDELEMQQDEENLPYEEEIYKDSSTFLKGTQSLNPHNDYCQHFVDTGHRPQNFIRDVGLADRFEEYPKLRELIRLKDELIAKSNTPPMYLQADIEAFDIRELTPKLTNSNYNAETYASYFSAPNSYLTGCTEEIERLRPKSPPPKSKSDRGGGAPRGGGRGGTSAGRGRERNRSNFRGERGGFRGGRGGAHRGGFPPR

[2] = molecular target: T2, wild-type Flag-METTL14 (full-length METTL14, 1-456 amino acids) (UniProt Q9HCE5); test: as above
T2 sequence: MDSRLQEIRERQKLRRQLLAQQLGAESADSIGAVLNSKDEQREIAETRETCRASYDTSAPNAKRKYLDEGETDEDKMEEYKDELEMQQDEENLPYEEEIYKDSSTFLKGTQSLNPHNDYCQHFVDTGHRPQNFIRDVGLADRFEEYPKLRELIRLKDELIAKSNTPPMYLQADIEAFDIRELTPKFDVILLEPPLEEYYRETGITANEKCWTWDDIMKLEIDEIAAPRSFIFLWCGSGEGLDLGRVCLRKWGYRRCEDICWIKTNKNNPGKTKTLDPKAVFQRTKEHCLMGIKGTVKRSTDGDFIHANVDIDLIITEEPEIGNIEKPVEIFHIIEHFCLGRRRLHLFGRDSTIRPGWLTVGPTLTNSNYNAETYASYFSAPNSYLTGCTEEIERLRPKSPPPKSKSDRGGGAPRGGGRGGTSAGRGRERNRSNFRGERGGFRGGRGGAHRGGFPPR

[3] = molecular target: T3, methyltransferase-like 14 (METTL14) (human (endogenous in HUVECs)) (UniProt Q9HCE5); test: co-IP; HUVECs; reverse (reciprocal) immunoprecipitation (Fig. 2b); precipitating antibody not stated
T3 sequence: T2 sequence

[4] = molecular target: IGFBP5 (human (endogenous in HUVECs)) (UniProt P24593); test: co-IP; HUVECs; co-immunoprecipitation of IGFBP5 with METTL14, METTL3 and WTAP (Fig. 2a); precipitating antibody not stated

binding [1]: no binding
binding [2]: binds
Molecule: HA-tagged IGFBP5 (from UniProt P24593 21-272)

binding [4]: binds
B1: methyltransferase-like 14 (METTL14) (protein, UniProt Q9HCE5 1-456)
chain: T2 sequence

The remaining lines, values behind:

Molecule: IGFBP5 (from UniProt P24593 21-272)
binding [3]: binds

Molecule: methyltransferase-like 3 (METTL3) (from UniProt Q86U44 1-580)
binding [4]: no binding
